Data: US20260250410A1, “ANTIBODY AND USE THEREOF” (SICHUAN HUIYU PHARMACEUTICAL CO., LTD., priority 2022, published 2026)

B1: SB2: anti-CDCP1 antibody by single B cell technique; VH SEQ ID NO: 272, VL SEQ ID NO: 322 (antibody, V domains shown)
VH: DVKLVESGGGLVKPGGSLKLSCAASGFTFSSYTMSWVRQTPEKRLEWVATISSGGIYTYYPDSVKGRFTISRDNAKDTLYLQMNSLRSEDTAVYYCSSPHSYAISYGYFDYWGQGTTLTVSS
VL: DVVMTQTPLTLSITIGQPASISCRSSQSLLDIDGKTYLNWLLQRPGQSPKRLIYLVSELDSGVPDRFTGSGSGTDFTLRISGVEAEDLGIYYCWQGTHFPYTFGGGTKLEIK
modifications: SB2 heavy chain variable region; SB2 light chain variable region
B2: SB3: anti-CDCP1 antibody by single B cell technique; VH SEQ ID NO: 273, VL SEQ ID NO: 323 (antibody, V domains shown)
VH: B1 VH with K13E, T28P, N84S
VL: B1 VL with I32F, R79K, Y101F
modifications: SB3 heavy chain variable region; SB3 light chain variable region

Tested on: MDA-MB-231 cells
Assay: Endocytosis capacity of single B cell antibodies
Format: cell-based, human
Details: MDA-MB-231, 2 h at 37° C., antibody 1.5 μg/mL
Method: The endocytosis capacity of the antibody was detected for 0.5 to 2 hours. MDA-MB-231 cells were subjected to digestion with 5 mM EDTA, and plated at 2×10^4 cells/well after cell counting. After adding an Fc blocker (Human TruStain FcX™, Biolegend, 422302) and blocking at room temperature for 10 mins, a test antibody (1.5 μg/mL) was added, and the mixture was incubated at 4° C. for 30 mins, centrifuged, and washed twice with PBS+2% FBS, then the cells were divided into four equal portions (labeled as 0 h, 0.5 h, 1 h, 2 h), cells labeled as 0.5 h, 1 h, 2 h time points were added to 200 μL of cell culture medium, and cultured at 37° C. for 0.5 h, 1 h, 2 h, respectively. Cells at 0 h point were centrifuged, a secondary antibody (PE anti-human IgG Fc Antibody, Biolegend, 410708) was added, and the mixture was incubated at 4° C. for 30 mins, centrifuged, and washed twice with PBS+2% FBS, and detection was performed using a flow cytometer. After incubation of cells labeled as 0.5 h, 1 h, and 2 h points at 37° C. was completed, a secondary antibody was added (in the same steps as those at 0 h point), Geo-MFI of the signal under the same voltage was collected as detection signal at 0 h, and antibody internalization rate was calculated according to the following equation: Internalization (%)=(Geo-MFI (0 h)-Geo-MFI (2 h))/Geo-MFI (0 h)×100%.

Molecule	Internalization MDA-MB-231 (%)
B1	77.69
B2	78.20

Changes are numbered by the printed parent chain.
